Measured values as given in PubChem BioAssay AID1347165 (National Center for Advancing Translational Sciences (NCATS), 2019).
The whole screen tested about 220,000 compounds, of which about 5,700 (2.6%) were called active. The shares of active, inactive and inconclusive entries below differ from those in the screen. Calls follow the shape of the dose curve; as a rule, active = well fitted inhibition curve with a large enough effect; inconclusive = small, poorly fitted or top-dose-only effect; inactive = no such curve, though single readings can be large or run the other way. Where the call is inconclusive, the potency comes from a doubtful curve fit.

These compounds were tested against Lysine-specific demethylase 5B (Homo sapiens) (UniProt Q9UGL1) (assay: Primary screen for KDM5B Histone Demethylases FDH-coupled qHTS). Details: FDH-coupled NADH fluorescence (FDH is formaldehyde dehydrogenase); activity change, negative = inhibition: at 57.7 µM (top of the series) unless noted.
In short: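 Here, H3K4me3 peptide (12.5 µM in substrate mix) is demethylated by KDM5BΔAP, 200 nM final, after 10 min compound exposure. Formaldehyde product is coupled through FDH (0.25 U/mL in mix) to NADH fluorescence; 30-min ΔRFU feeds dose-response curves.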
Also: nearly all actives have a fitted effect of over 70% in size.
For activity change, negative = inhibition in this document: 0% is about no effect.
Potency is read from the fitted curve at half-maximal effect; tags tell the direction and shape of the fitted curve.

Chain of UniProt Q9UGL1 (Q9UGL1 whole entry, looked up): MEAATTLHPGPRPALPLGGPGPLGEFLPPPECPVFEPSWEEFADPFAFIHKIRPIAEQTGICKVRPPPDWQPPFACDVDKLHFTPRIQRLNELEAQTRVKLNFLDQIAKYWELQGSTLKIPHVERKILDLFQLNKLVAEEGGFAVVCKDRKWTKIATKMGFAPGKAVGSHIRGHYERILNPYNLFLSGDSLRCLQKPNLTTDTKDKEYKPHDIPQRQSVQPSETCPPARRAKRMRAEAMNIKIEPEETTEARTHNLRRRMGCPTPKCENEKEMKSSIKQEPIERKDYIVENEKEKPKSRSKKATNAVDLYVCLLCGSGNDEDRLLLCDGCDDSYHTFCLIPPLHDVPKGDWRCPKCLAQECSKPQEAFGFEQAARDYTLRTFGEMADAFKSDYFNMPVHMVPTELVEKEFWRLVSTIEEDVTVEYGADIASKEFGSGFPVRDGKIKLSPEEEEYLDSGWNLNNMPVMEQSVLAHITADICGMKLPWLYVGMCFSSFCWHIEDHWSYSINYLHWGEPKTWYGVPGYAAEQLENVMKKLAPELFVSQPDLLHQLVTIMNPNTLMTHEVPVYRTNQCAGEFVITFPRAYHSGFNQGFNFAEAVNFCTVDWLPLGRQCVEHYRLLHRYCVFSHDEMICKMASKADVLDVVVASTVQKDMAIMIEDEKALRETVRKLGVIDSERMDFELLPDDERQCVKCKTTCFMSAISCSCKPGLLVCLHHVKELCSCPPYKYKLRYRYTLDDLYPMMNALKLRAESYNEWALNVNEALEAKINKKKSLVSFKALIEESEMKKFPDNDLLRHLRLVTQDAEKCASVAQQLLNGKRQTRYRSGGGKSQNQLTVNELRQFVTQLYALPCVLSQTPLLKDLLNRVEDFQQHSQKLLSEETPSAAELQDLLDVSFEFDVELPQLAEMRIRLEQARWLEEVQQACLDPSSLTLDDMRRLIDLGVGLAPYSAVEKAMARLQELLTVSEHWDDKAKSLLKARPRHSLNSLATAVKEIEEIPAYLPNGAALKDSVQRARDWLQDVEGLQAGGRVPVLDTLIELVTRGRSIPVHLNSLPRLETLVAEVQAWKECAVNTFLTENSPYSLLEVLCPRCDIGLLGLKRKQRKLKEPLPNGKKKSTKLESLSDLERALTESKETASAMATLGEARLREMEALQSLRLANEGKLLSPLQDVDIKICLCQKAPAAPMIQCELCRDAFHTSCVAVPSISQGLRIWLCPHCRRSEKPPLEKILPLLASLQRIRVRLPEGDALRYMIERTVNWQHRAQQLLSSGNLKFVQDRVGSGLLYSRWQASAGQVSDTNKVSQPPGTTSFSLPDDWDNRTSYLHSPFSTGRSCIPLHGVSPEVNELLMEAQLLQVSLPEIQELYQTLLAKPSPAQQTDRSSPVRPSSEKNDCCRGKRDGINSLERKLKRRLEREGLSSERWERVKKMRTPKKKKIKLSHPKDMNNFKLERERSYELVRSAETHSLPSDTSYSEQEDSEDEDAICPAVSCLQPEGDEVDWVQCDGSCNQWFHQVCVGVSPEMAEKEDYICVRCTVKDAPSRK

SMILES | Potency | activity change, negative = inhibition
CCOC(=O)Cn1c(=N)n(Cc2ccc(C(C)(C)C)cc2)c2ccccc21 | inconclusive: 20 µM [inhibitor, partial curve, poor fit] | –
O=[N+]([O-])c1ccc(O)c(C2=NNC(c3ccccc3F)C2)c1 (stereo not drawn) | inconclusive: 35.5 µM [inhibitor, partial curve, poor fit] | –
COC(=O)c1cc2oc(C)cc2n1Cc1ccccc1Cl | inconclusive: 25.1 µM [inhibitor, single point] | –
O=C(Nc1cccnc1Cl)C1CCCCC1 | – | inactive: 22.3%
Cc1ccc(CN2C(=O)C(O)(c3c(C)[nH]c4ccccc34)c3ccccc32)cc1 (stereo not drawn) | inconclusive: 3.16 µM [inhibitor, partial curve, poor fit] | –
Cc1oc2c(c1C(=O)N1CCN(C3CCCC3)CC1)CN(Cc1cccc(F)c1)CC2 | inconclusive: 25.1 µM [inhibitor, single point] | –
COC(=O)C1=CN(c2cccc(C(F)(F)F)c2)C=C(C(=O)OC)C1c1ccc(F)cc1 | inconclusive: 1.78 µM [inhibitor, full curve, poor fit] | –
Cc1nc(CN2C(=O)OC3(CCN(C(=O)CCc4ccccn4)CC3)C2(C)c2ccccc2)cs1 (stereo not drawn) | inconclusive: 20 µM [inhibitor, single point] | –
c1cncc(-c2ccnc(NCC(c3cccnc3)N3CCCCC3)n2)c1 (stereo not drawn) | active: 31.6 µM | –
CC(C)NC(=O)CC1Sc2ncccc2N(C)C1=O (stereo not drawn) | – | inactive: 4.95%
COc1ccc(NC(=O)C2CCC(CNS(=O)(=O)c3cccc4nsnc34)CC2)cc1OC (stereo not drawn) | inconclusive: 2.51 µM [inhibitor, full curve, poor fit] | –
COc1ccc(OC)c(NC(=O)C2CC(=O)N(c3n[nH]c4cccc(F)c34)C2)c1 (stereo not drawn) | active: 31.6 µM | –
O=C(Nc1cccc(-n2cccn2)c1)C1CCCN1C(=O)C1CC1 (stereo not drawn) | inconclusive: 6.31 µM [inhibitor, single point] | –
CCn1ccc(C(=O)N2CCC(Oc3ccccc3-c3nc(-c4ccccc4)no3)C2)n1 (stereo not drawn) | inconclusive: 25.1 µM [inhibitor, single point] | –
CCn1c(Cn2ccnc2C)nnc1C1CCN(C(=O)CCN)CC1 | inconclusive: 14.1 µM [inhibitor, partial curve] | –
COCCN1CCNc2nc(CNCc3cnccn3)n(Cc3ccccc3)c2C1=O | inconclusive: 56.2 µM [inhibitor, single point] | –
CC(C)Oc1cccc(-c2nc(C(=O)NCc3ccco3)cs2)c1 | inconclusive: 28.2 µM [inhibitor, single point] | –
O=C(Nc1cccn2nc(C3CCC3)nc12)c1ccc(F)cc1F | active: 31.6 µM | –
CN(C)S(=O)(=O)N1CCC2(CC1)CC1C(=O)NCCN1C2 (stereo not drawn) | inconclusive: 12.6 µM [inhibitor, partial curve, poor fit] | –
COc1ccc(Cl)cc1NC(=O)c1c(NCc2ccc(C)o2)sc2c1CCC(C)C2 (stereo not drawn) | inconclusive: 15.8 µM [inhibitor, partial curve, poor fit] | –
Cc1ccc(-c2cn3cccnc3n2)cc1NC(=O)C(C)(C)Oc1ccc(Cl)cc1 | inconclusive: 25.1 µM [inhibitor, partial curve, poor fit] | –

SMILES | Potency | activity change, negative = inhibition
O=[S+]1([O-])NCC2(CCN(Cc3ccccn3)CC2)Oc2ncccc21 | inconclusive: 44.7 µM [inhibitor, partial curve, poor fit] | –
C=C(C)CSc1nc2sc3c(c2c(=O)n1Cc1ccccc1)CC(C)(CC)OC3 (stereo not drawn) | inconclusive: 17.8 µM [inhibitor, partial curve, poor fit] | –
O=C(NCC1Cn2cccc2C(=O)N1Cc1ccccc1)c1ccncc1 (stereo not drawn) | – | inactive: -12.6%
Cc1ccc(N(Cc2nnc(SCC(=O)c3cc(C)n(C4CC4)c3C)n2C)S(C)(=O)=O)cc1 | – | inactive: 5.95%
Cc1ccc(F)cc1NC(=O)Cn1cnc2c1c(=O)n(C)c(=O)n2C | inconclusive: 31.6 µM [inhibitor, single point] | –
Cc1cc(C)cc(NC(=O)C(Sc2nnnn2C2CCCC2)c2ccccc2)c1 (stereo not drawn) | – | inactive: 4.11%
Cc1ccc(CN2CCCC23Cc2ccccc2CNC3=O)cc1C (stereo not drawn) | inconclusive: 79.4 µM [inhibitor, partial curve, poor fit] | –
O=C(Nc1ccccc1Cl)c1cc(C2CC2)nn1-c1ccccc1 | inconclusive: 25.1 µM [inhibitor, single point] | –
CC1N=C2c3ccccc3N=C(SCC(=O)NCCc3ccc(Cl)cc3)N2C1=O (stereo not drawn) | inconclusive: 31.6 µM [inhibitor, partial curve, poor fit] | –
CCn1c2ccccc2c2cc(CN3CCN(Cc4ccc(Br)cc4)CC3)ccc21 | inconclusive: 10 µM [inhibitor, partial curve, poor fit] | –
Cc1ccc2oc3c(c(=O)c2c1)C(c1ccc(O)cc1)N(CCCN(C)C)C3=O (stereo not drawn) | inconclusive: 15.8 µM [inhibitor, partial curve, poor fit] | –
O=C(NC[C@H]1O[C@@H](CC(=O)N2CCN(c3ccccc3)CC2)[C@H](O)[C@@H]1O)c1ccccc1 | – | inactive: 4.52%
Cc1ccc(-n2c(=O)c3cccnc3n2CC(=O)NCc2ccc(Cl)cc2)cc1 | inconclusive: 25.1 µM [inhibitor, partial curve, poor fit] | –
COC(=O)c1ccc([C@@H]2Nc3c(OC)ccc(C)c3[C@@H]3C=CC[C@@H]32)cc1 | inconclusive: 15.8 µM [inhibitor, partial curve, poor fit] | –
Fc1ccccc1N1CCN(c2nc(-c3cccnc3)nc3ccccc23)CC1 | inconclusive: 39.8 µM [inhibitor, single point] | –
CCc1ccccc1NC(=O)CN(C)C(=O)COc1ccc2oc3c(c2c1)CCCC3 | – | inactive: 7.1%
Cc1cccc(Nc2ncnc3onc(-c4ccc(Cl)cc4)c23)c1C | inconclusive: 39.8 µM [inhibitor, single point] | –
O=C1Cc2cc(S(=O)(=O)NCc3ccco3)cc3c2N1CCC3 | – | inactive: -0.408%
COC(=O)c1cc(Nc2nc3ccccc3nc2NS(=O)(=O)c2ccc(C)cc2)ccc1Cl | inconclusive: 22.4 µM [inhibitor, partial curve, poor fit] | –
Oc1ccccc1CN[C@H]1[C@H](O)[C@@H](N2CCC(Cc3ccccc3)CC2)[C@@H]2OC[C@H]1O2 | inconclusive: 31.6 µM [inhibitor, partial curve] | –
O=C(NCc1nc2c(s1)CCCC2)C1NCCc2[nH]cnc21 (stereo not drawn) | inconclusive: 14.1 µM [inhibitor, partial curve, poor fit] | –

SMILES | Potency | activity change, negative = inhibition
CNC(=O)[C@H]1C[C@H](Oc2ccccc2)CN1C(=O)c1ccc2ccccc2n1 | – | inactive: 8.14%
COc1cccc(Cc2nc3ccccc3nc2SCC(=O)Nc2cccc(C)c2)c1 | inconclusive: 25.1 µM [inhibitor, single point] | –
Cc1ccc(Cn2cc(S(=O)(=O)c3cccc(C)c3)c(=O)c3cc(F)c(N4CCOCC4)cc32)cc1 | inconclusive: 35.5 µM [inhibitor, partial curve, poor fit] | –
O=C(Cn1c(=O)n(Cc2nc(-c3ccccc3)no2)c(=O)c2cc3c(cc21)OCO3)Nc1ccccc1 | inconclusive: 31.6 µM [inhibitor, partial curve, poor fit] | –
CNC(=O)[C@@H](c1ccccc1F)N1CCC[C@H]1C(=O)NCc1ccncc1 | inconclusive: 25.1 µM [inhibitor, partial curve, poor fit] | –
CCOc1ccc(-n2c(SCC(=O)Nc3cc(C)ccc3C)nc3c([nH]c4ccccc43)c2=O)cc1 | inconclusive: 11.2 µM [inhibitor, partial curve, poor fit] | –
O=C(c1cc(F)cc(F)c1)N1CCC(CCc2ccc(O)cc2)CC1 | – | inactive: -19.3%
CCCCN(C)S(=O)(=O)NCc1ccnc(N2CCN(c3ccc(F)cc3)CC2)c1 | – | inactive: -7.26%
COc1ccc(Cc2nc3c4c(C)c(C)n(CCO)c4ncn3n2)cc1OC | inconclusive: 5.01 µM [inhibitor, full curve, poor fit] | –
O=C(CSc1nnc(-c2ccc3c(c2)OCO3)o1)Oc1ccccc1 | inconclusive: 31.6 µM [inhibitor, partial curve, poor fit] | –
O=C(COC(=O)c1cc(-c2cccs2)nc2ccccc12)c1ccc(F)cc1 | inconclusive: 28.2 µM [inhibitor, partial curve, poor fit] | –
CC1(COc2cccnc2)COc2ccc(C(=O)NCc3ccc4c(c3)OCO4)cc2N1 (stereo not drawn) | active: 15.8 µM | –
CC(CNC(=O)c1cc2ccccc2o1)N1CCCC1 (stereo not drawn) | – | inactive: -3.97%
COCCN(C)C(=O)C1(C)CN(Cc2ccccc2)Cc2ccc(NCC(C)C)nc21 (stereo not drawn) | active: 31.6 µM | –
O=C(O)C[C@@H]1CCN(C(=O)C2CC2)C[C@@H]1CCN1CCN(c2ccccc2)CC1 | inconclusive: 35.5 µM [inhibitor, single point] | –
O=C(c1ccccc1)N1CCC2(CC1)N=C(c1cccc(Br)c1)NO2 | inconclusive: 35.5 µM [inhibitor, single point] | –
Cc1c(CCC(=O)Nc2cccc(F)c2)c(=O)oc2cc(O)ccc12 | – | inactive: -400%
Cn1c(=O)c(C2=NN(S(C)(=O)=O)C(c3ccco3)C2)c(-c2ccccc2)c2cc(Cl)ccc21 (stereo not drawn) | inconclusive: 39.8 µM [inhibitor, single point] | –
O=S(=O)(NCc1ccc(N2CCOCC2)nc1)c1ccc(Cl)cc1C(F)(F)F | – | inactive: 5.37%
COc1ccc(CNC(=O)C(Cc2ccccc2)n2cccc2)cc1 (stereo not drawn) | inconclusive: 22.4 µM [inhibitor, partial curve, poor fit] | –
COc1ccccc1NC(=O)c1ccc(C)c(S(=O)(=O)N2CCCCC2)c1 | inconclusive: 39.8 µM [inhibitor, single point] | –
